Results from the supplement of paper PMC12217912.
The list shows a part of the results. The full chains were built here from the parent and the listed change. Values near 0.05 are background.

B1: TEV protease; numbered along this chain (parent)
chain: MGESLFKGPRDYNPISSSICHLTNESDGHTTSLYGIGFGPFIITNKHLFRRNNGTLVVQSLHGVFKVKDTTTLQQHLVDGRDMIIIRMPKDFPPFPQKLKFREPQREERICLVTTNFQTKSMSSMVSDTSCTFPSGDGIFWKHWIQTKDGQCGSPLVSTRDGFIVGIHSASNFTNTNNYFTSVPKNFMELLTNQEAQQWVSGWRLNADSVLWGGHKVFMVKPEEPFQPVKEATQL

Variants of: B1
Experiment: raw area under fraction-flipped curve 0-4 h after induction (AUC4h, not background-subtracted), DNA-recorder readout of cleavage of the substrate (dimensionless); higher = more cleavage of the substrate by the protease variant
Conditions: temperature: 34 °C; time window: 0-4 h after rhamnose induction
Method: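 In vivo DNA recorder in E. coli TOP10(DE3) ΔrhaA at 34 °C. Each TEVp single-site mutant (parent TEVp 0) is paired with a single-site variant of the 7-mer TEVs (canonical ENLYFQ|S). The substrate sits between flexible linkers in a Bxb1-sfGFP-TEVs-SsrA fusion, so cleavage stabilises Bxb1 and speeds flipping of a recombination array, read by NGS. The value is the raw area under the fraction-flipped curve over 0-4 h after rhamnose induction (AUC4h), with ≥20 reads per time point. It is not background-subtracted; inactive controls average about 0.047.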
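Note: Bxb1 expression induced with 0.2% (w/v) L-rhamnose at OD600 near 0.5, cultures sampled hourly, flipped fraction per protease–substrate barcode pair counted by paired-end Illumina sequencing.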

Row | Variant | area with substrate ENLYFQA | area with substrate ENLYFQC | area with substrate ENLYFQE | area with substrate ENLYFQF | area with substrate ENLYFQG | area with substrate ENLYFQH | area with substrate ENLYFQI | area with substrate ENLYFQK | area with substrate ENLYFQL | area with substrate ENLYFQM | area with substrate ENLYFQN | area with substrate ENLYFQP | area with substrate ENLYFQQ | area with substrate ENLYFQR | area with substrate ENLYFQS | area with substrate ENLYFQT | area with substrate ENLYFQV | area with substrate ENLYFQW | area with substrate ENLYFQY | area with substrate ENLYFQD
1 | MGESLFKGPRDYNPISSSICHPTNESDGHTTSLYGIGFGPFIITNKHLFRRNNGTLVVQSLHGVFKVKDTTTLQQHLVDGRDMIIIRMPKDFPPFPQKLKFREPQREERICLVTTNFQTKSMSSMVSDTSCTFPSGDGIFWKHWIQTKDGQCGSPLVSTRDGFIVGIHSASNFTNTNNYFTSVPKNFMELLTNQEAQQWVSGWRLNADSVLWGGHKVFMVKPEEPFQPVKEATQL [L22P] | 0.0115 | 0.0438 | 0.0196 | 0.0406 | 0.0421 | 0.0578 | 0.0525 | 0.0477 | 0.0412 | 0.0487 | 0.0414 | 0.0046 | 0.0389 | 0.0447 | 0.045 | 0.0412 | 0.0415 | 0.0411 | 0.0287 | –
2 | MGESLFKGPRDYNPISSSICHLYNESDGHTTSLYGIGFGPFIITNKHLFRRNNGTLVVQSLHGVFKVKDTTTLQQHLVDGRDMIIIRMPKDFPPFPQKLKFREPQREERICLVTTNFQTKSMSSMVSDTSCTFPSGDGIFWKHWIQTKDGQCGSPLVSTRDGFIVGIHSASNFTNTNNYFTSVPKNFMELLTNQEAQQWVSGWRLNADSVLWGGHKVFMVKPEEPFQPVKEATQL [T23Y] | 0.0978 | 0.0977 | – | 0.0809 | 0.0919 | 0.0693 | 0.0592 | 0.0689 | 0.0619 | 0.0988 | – | – | – | 0.0633 | 0.0893 | 0.0673 | – | 0.0664 | 0.068 | –
3 | MGESLFKGPRDYNPISSSICHLTNGSDGHTTSLYGIGFGPFIITNKHLFRRNNGTLVVQSLHGVFKVKDTTTLQQHLVDGRDMIIIRMPKDFPPFPQKLKFREPQREERICLVTTNFQTKSMSSMVSDTSCTFPSGDGIFWKHWIQTKDGQCGSPLVSTRDGFIVGIHSASNFTNTNNYFTSVPKNFMELLTNQEAQQWVSGWRLNADSVLWGGHKVFMVKPEEPFQPVKEATQL [E25G] | 0.074 | 0.106 | – | – | 0.0875 | 0.0676 | 0.0584 | 0.0563 | 0.0591 | 0.0823 | 0.0748 | 0.0462 | 0.0655 | 0.06 | 0.089 | 0.0605 | 0.0636 | 0.0648 | 0.0668 | 0.0667
4 | MGESLFKGPRDYNPISSSICHLTNNSDGHTTSLYGIGFGPFIITNKHLFRRNNGTLVVQSLHGVFKVKDTTTLQQHLVDGRDMIIIRMPKDFPPFPQKLKFREPQREERICLVTTNFQTKSMSSMVSDTSCTFPSGDGIFWKHWIQTKDGQCGSPLVSTRDGFIVGIHSASNFTNTNNYFTSVPKNFMELLTNQEAQQWVSGWRLNADSVLWGGHKVFMVKPEEPFQPVKEATQL [E25N] | 0.108 | 0.119 | 0.062 | – | 0.11 | – | 0.0602 | 0.0672 | 0.0643 | 0.0925 | 0.0592 | – | 0.0753 | 0.0658 | 0.104 | 0.0652 | – | 0.0707 | 0.0922 | 0.0604
5 | MGESLFKGPRDYNPISSSICHLTNWSDGHTTSLYGIGFGPFIITNKHLFRRNNGTLVVQSLHGVFKVKDTTTLQQHLVDGRDMIIIRMPKDFPPFPQKLKFREPQREERICLVTTNFQTKSMSSMVSDTSCTFPSGDGIFWKHWIQTKDGQCGSPLVSTRDGFIVGIHSASNFTNTNNYFTSVPKNFMELLTNQEAQQWVSGWRLNADSVLWGGHKVFMVKPEEPFQPVKEATQL [E25W] | 0.136 | 0.141 | 0.051 | – | 0.0888 | 0.0811 | 0.0548 | – | 0.0599 | 0.084 | – | 0.0474 | 0.077 | 0.0529 | 0.107 | 0.0613 | 0.0504 | 0.0816 | – | 0.0675
6 | MGESLFKGPRDYNPISSSICHLTNYSDGHTTSLYGIGFGPFIITNKHLFRRNNGTLVVQSLHGVFKVKDTTTLQQHLVDGRDMIIIRMPKDFPPFPQKLKFREPQREERICLVTTNFQTKSMSSMVSDTSCTFPSGDGIFWKHWIQTKDGQCGSPLVSTRDGFIVGIHSASNFTNTNNYFTSVPKNFMELLTNQEAQQWVSGWRLNADSVLWGGHKVFMVKPEEPFQPVKEATQL [E25Y] | 0.0807 | 0.108 | – | 0.0679 | 0.169 | – | 0.0668 | 0.0558 | 0.0612 | 0.0912 | 0.071 | 0.0524 | – | 0.061 | 0.104 | 0.0729 | – | 0.0614 | 0.0781 | 0.0885
7 | MGESLFKGPRDYNPISSSICHLTNEHDGHTTSLYGIGFGPFIITNKHLFRRNNGTLVVQSLHGVFKVKDTTTLQQHLVDGRDMIIIRMPKDFPPFPQKLKFREPQREERICLVTTNFQTKSMSSMVSDTSCTFPSGDGIFWKHWIQTKDGQCGSPLVSTRDGFIVGIHSASNFTNTNNYFTSVPKNFMELLTNQEAQQWVSGWRLNADSVLWGGHKVFMVKPEEPFQPVKEATQL [S26H] | 0.0751 | 0.0681 | – | – | – | 0.0755 | 0.0522 | – | 0.0567 | 0.0695 | – | 0.0545 | – | 0.0656 | 0.0755 | – | – | 0.0404 | 0.0917 | –
8 | MGESLFKGPRDYNPISSSICHLTNEWDGHTTSLYGIGFGPFIITNKHLFRRNNGTLVVQSLHGVFKVKDTTTLQQHLVDGRDMIIIRMPKDFPPFPQKLKFREPQREERICLVTTNFQTKSMSSMVSDTSCTFPSGDGIFWKHWIQTKDGQCGSPLVSTRDGFIVGIHSASNFTNTNNYFTSVPKNFMELLTNQEAQQWVSGWRLNADSVLWGGHKVFMVKPEEPFQPVKEATQL [S26W] | 0.0825 | 0.082 | – | – | 0.0585 | 0.0717 | 0.0593 | – | 0.0594 | 0.0721 | 0.0201 | – | 0.0515 | 0.0626 | 0.0791 | 0.0621 | 0.0681 | – | – | 0.0444
